From PubChem BioAssay AID1814 (Broad Institute, 2009)
Where “and” joins values, the source holds several entries; their conditions need not be identical. Equal entries are not always repeated. Out of some 300,000 compounds screened, about 22,000 (7.3%) were called active. This list was built around the results that the source calls inconclusive (neither active nor inactive); the mix of calls is not that of the screen. Cut-off read from the data, not from the text of the source: active = activity score below about -60%; inconclusive = mostly about -28% to -61%; inactive = positive scores.

Assay: Activators via SNCA 5'UTR binding, MLPCN (AID 1814)
Conditions: alpha-synuclein 5'UTR reporter, activators screen; active compounds read low; tested at 7.5 µM

SMILES | activity score
Cc1cc(NC(=O)c2cccs2)no1 | inconclusive: -58%
O=C(Nc1cnc2sccn2c1=O)c1ccccc1Cl | active: -180%
CN(c1ccc(C(=O)Nc2ccccc2C(F)(F)F)cc1)S(C)(=O)=O | inconclusive: -49.4%
CCN=C1NN=C(c2c[nH]c3ccccc23)CS1 | active: -68%
CC(=O)Nc1ccc(NC(=O)CN(c2ccccc2Cl)S(C)(=O)=O)cc1 | inconclusive: -31.3%
COC(=O)c1ccc(NC(=O)CS(=O)(=O)c2ccccc2)cc1 | inconclusive: -53.7%
COc1cccc(Nc2nnc(SCC(=O)N3CCOCC3)s2)c1 | inconclusive: -54.5%
Cc1ccc2nc(CSc3nc(C)cc(C)c3C#N)[nH]c2c1 | active: -69.7%
CCn1nc(C)c(/C=N/NC(=O)Cn2nccc2C)c1C | inconclusive: -49.2%
CC(C)(C)C(=O)N1CCc2cc(-c3csc(N)n3)ccc21 | inactive: 65.6%
COc1ccc(-c2oc3ccccc3c(=O)c2OC(C)=O)cc1 | active: -174%
N#C/C(=C\c1ccncc1)c1nc2c(s1)CCCC2 | inconclusive: -41%
O=C(CSc1nnc(NC(=O)c2ccccc2F)s1)NC1CC1 | inconclusive: -51.6%
Cc1ccc(NC(=O)C2CCCN2C(=O)OCc2ccccc2)c(O)c1 (centres undefined) | inconclusive: -57.6%
NC(=NCCCCCCN=C(N)/N=C(\N)Nc1ccc(Cl)cc1)/N=C(\N)Nc1ccc(Cl)cc1 | inactive: 104% and inactive: 96.1%
O=C(Nc1ccc(NC(=O)c2cc3ccccc3o2)cc1)c1ccco1 | active: -94.7%
O=C(NCCc1c[nH]c2ccccc12)c1cnc2sccn2c1=O | active: -152%
COc1cccc(C=Nc2cc(C)cc(C)c2)c1O | inconclusive: -36.5%
CCc1ccc2c(c1)C(c1ccc([N+](=O)[O-])cc1)=NNC(c1ccc(F)cc1)=N2 | active: -79%
COc1ccc(/C=C2\COc3ccccc3C2=O)c(OC)c1 | active: -140%
Cc1ccc(N/C(C(Cl)=C(Cl)Cl)=C(/Cl)[N+](=O)[O-])c(C)c1 | inconclusive: -53.2%
S=C(N/N=C/c1ccc(Br)cc1)N1CCCCC1 | active: -195%
O=C1c2ccccc2C(=O)C1c1ccc2ccccc2n1 | inactive: 94.4%
CC(=O)CSc1ccc(-c2nc3cc(C)c(C)cc3[nH]2)cn1 | inactive: 121%

SMILES | activity score
Fc1ccccc1/C=N/Nc1nc(-c2ccccn2)nc2ccccc12 | inactive: 81.4%
Oc1[nH]c2c(Cl)cc(Cl)cc2c1N=NC(=S)NCC1CCCO1 (centres undefined) | inactive: 79.3%
Cc1ccc(C)c(NC(=S)NC(NC(=O)Cc2cccc3ccccc23)C(Cl)(Cl)Cl)c1 (centres undefined) | inactive: 112%
COc1ccc(/C(N)=N/OC(=O)c2cccc([N+](=O)[O-])c2)cc1 | active: -129%
O=C1C(=Cc2cccn2-c2ccccc2)C(=O)c2ccccc21 | inconclusive: -47.2%
COc1ccc(C(=O)NCCC2=CCCCC2)cc1[N+](=O)[O-] | inconclusive: -30.5%
Cc1ccc(-c2cc(-c3ccc(C)cc3O)[nH]n2)cc1 | active: -160%
c1ccc(Sc2ccccc2CN2CCCC2)cc1 | inactive: 84.6%
c1ccc(-c2ccc(-c3cnc4n3CCCCC4)cc2)cc1 | inconclusive: -49.6%
CCOC(=O)c1sc(=NC(=O)/C=C/c2ccccc2)n(C)c1C | active: -111%
CCn1c(/C=C/c2ccc(O)cc2)nc2ccccc2c1=O | inconclusive: -57.2%
CCOc1ccc2nc(N(CCCN(C)C)C(=O)c3ccc(C(=O)c4ccccc4)cc3)sc2c1 | inactive: 90.2%
CC(C)(C)n1cnc2cc(NC(=O)c3ccc(Cl)cc3)ccc21 | active: -138%
CCOc1ccc(C(=O)N[C@H](C(=O)Nc2cccc(S(=O)(=O)N3CCCCC3)c2)C(C)C)cc1 | inactive: 75.6%
Cc1ccc(O)c(NC(=O)CSc2n[nH]c(-c3ccccc3)n2)c1 | inconclusive: -46.2%
COc1ccc(/C=C2/CCOC2=O)cc1 | inconclusive: -41.4%
CC(=O)Nc1ncnc2c1c(-c1ccc(Cl)cc1)nn2C(C)(C)C | inactive: 52.6%
O=C(/C=C/c1ccc(Cl)c(Cl)c1)n1cccn1 | inconclusive: -56.7%
COc1cc(/C=C/c2ccc(O)cc2)cc(OC)c1 | active: -156%
O=C(N/N=C/c1ccc(Br)s1)c1cccc([N+](=O)[O-])c1 | inactive: 69.8%
CCc1nnc(NC(=O)Cc2cc(OC)c(OC)c(OC)c2)s1 | inconclusive: -33.6%
O=C(Nc1cccc(C(F)(F)F)c1)Oc1ccc(Cl)c2cccnc12 | inactive: 75.1%
Cc1ccn2cc(-c3ccc(Br)cc3)nc2c1 | inactive: 62.7%
Cc1ccc(N2C(=O)c3cccc4c([N+](=O)[O-])ccc(c34)C2=O)c2cccnc12 | inactive: 56.2%

SMILES | activity score
CC1=C(C#N)C(c2ccccc2O)C(C#N)=C(C)N1 | inconclusive: -55.8%
CCC(C)n1ncn(-c2ccc(N3CCN(c4ccc(O)cc4)CC3)cc2)c1=O (centres undefined) | inactive: 73.2%
O=C(Cc1cccs1)NCc1ccccc1 | inconclusive: -45.7%
O=C(N/N=C/c1cccnc1)c1ccc2c(c1)OCO2 | inconclusive: -56%
Cc1ccc(COc2ccc(/C=N/NC(=O)c3ccc(CN4CCOCC4)cc3)cc2)cc1 | inconclusive: -54.8%
Cc1ccc(NC2=CC(=O)C(=O)c3ccccc32)cc1 | inactive: 103%
CS(=O)(=O)c1sc(C#N)c2c1C(=O)CC(c1ccccc1)C2 (centres undefined) | inactive: 81.1%
CCc1ccc2[nH]c(=O)c(CN(CCN(C)C)C(=O)Nc3ccccc3)cc2c1 | inconclusive: -57%
NC(=O)c1c(/N=C/c2cccs2)sc2c1CCCC2 | inconclusive: -56.8%
O=C(N/N=C/c1cccc([N+](=O)[O-])c1)C1COc2ccccc2O1 (centres undefined) | inconclusive: -46.7%
O=C(O)c1ccc(NC2=Nc3cccc4cccc2c34)cc1 | inconclusive: -36.9%
CCc1ccc(CNC(=O)Cc2ccc(NC(=O)C3=C(C)OCCS3)cc2)cc1 | inactive: 65.8%
Cc1cccc(NC(=O)Nc2ccc3c(c2)CCC3)c1 | active: -116%
O=C(N/N=C/c1cc2c(cc1Cl)OCO2)c1ccc2c(c1)OCCO2 | inconclusive: -55.5%
COc1ccc(NC(=O)COC(=O)C2CC3C=CC2C3)cc1 (centres undefined) | inconclusive: -50.3%
O=C(c1ccc(O)cc1)c1ccc(Cl)cc1 | inconclusive: -44.6%
COc1cc(/C=N/Nc2ccccc2[N+](=O)[O-])cc(OC)c1O | inconclusive: -57.5%
CCc1ccc(N2CN=c3s/c(=C\c4ccccc4)c(=O)n3C2)cc1 | inconclusive: -48.7%
CCCCOc1ccc(C(=O)NCCc2cccs2)cc1 | inconclusive: -51.8%
CCOC(=O)c1nnn(-c2nonc2N)c1CN(C)Cc1ccccc1 | inconclusive: -24.7%
Cc1nc(NC(=O)c2ccc(Cl)cc2)sc1-c1csc(Nc2cccc(F)c2)n1 | inconclusive: -60.7%
C/C(CCC12CC3CC(CC(C3)C1)C2)=N\NC(N)=S | inconclusive: -40.5%
CC(=O)Nc1ccc(N/C=C/C(=O)c2ccc(Cl)cc2)cc1 | inconclusive: -54.4%
CN(C)CCCn1cnc2c(c1=N)C(c1ccccc1)c1ccc3ccccc3c1O2 (centres undefined) | inactive: 89.8%

SMILES | activity score
C/C(=N\Nc1ncc(Cl)cc1Cl)c1ccccn1 | inactive: 101%
COc1cccc(/C=C/C(=O)Nc2ccc(OC)nc2)c1 | inconclusive: -41.4%
CCC(C)c1ccc(O)c(NC(=O)c2cncc(Br)c2)c1 (centres undefined) | inconclusive: -43.2%
COc1ccc(C(=O)Nc2sc3c(c2C(=O)O)CC(C)(C)OC3)cc1 | inactive: 62.9%
Cc1ccccc1OCCC(=O)N(CC(=O)Nc1ccccc1C(F)(F)F)Cc1ccco1 | inconclusive: -60.7%
O=C(CSc1ncnc2ccccc12)NCC(=O)c1ccccc1 | inconclusive: -31.8%
COc1ccc(-c2cc(-c3ccccc3O)[nH]n2)cc1 | inconclusive: -57.4%
O=C(NNC(=O)c1ccccc1Br)c1cccs1 | inconclusive: -50.7%
O=C(O)c1cccc(CSc2nnc(-c3ccc(Cl)cc3)o2)c1 | inactive: 54.8%
COc1cccc(/C=N/Nc2ncnc3scc(-c4ccccc4)c23)c1O | inactive: 60.7%
CCCCOC(=O)Nc1cccc(C(C)=O)c1 | inconclusive: -59.4%
O=C(N/N=C/c1cccs1)c1ccc2ccccc2c1 | active: -240%
Cn1cc(C=C2C(=O)CC(C)(C)CC2=O)c2ccccc21 | inconclusive: -45.9%
CC(C)C(=O)N1CCc2cc(-c3csc(N)n3)ccc21 | inconclusive: -48.6%
CC(C)(C)C(=O)Nc1ccc(C(=O)Nc2cc(NC(=O)c3ccc(NC(=O)C(C)(C)C)cc3)cc(C(=O)O)c2)cc1 | inconclusive: -57.2%
CCOc1cc(/C=C2\CN(CC)C/C(=C\c3ccc(O)c(OCC)c3)C2=O)ccc1O | inactive: 102%
COC(=O)c1cc(OC)c(OC)cc1NC(=O)c1ccc(OC)cc1 | inconclusive: -41.9%
CCOc1ccc(-c2nc3ccccc3c(=O)o2)cc1 | active: -62.8%
CC(=O)c1ccccc1OCc1ccc(S(=O)(=O)Cc2ccccc2)cc1 | inconclusive: -32.8%
CCOc1ccccc1NC(=O)Cn1nnc(C(=O)NCc2cccs2)c1N | inactive: 84.9%
CC1Sc2n(c3ccccc3[n+]2C)N=C1c1ccccc1 (centres undefined) | active: -63.3%
CCOc1ccccc1NC(=O)c1nc(S(=O)(=O)Cc2cccc(C)c2)ncc1Cl | inactive: 88%
